Consider 92 compounds from PubChem BioAssay AID1645887 (National Center for Advancing Translational Sciences (NCATS), 2021).

Values joined by “and” are separate entries in the source; they are usually repeats but may differ in a detail not shown here. Equal values may be shown once. Out of some 16,000 compounds screened, about 40 (0.2%) were called active. About 1% were inconclusive and are not listed. Calls come from the whole dose curve; as a rule, active = well fitted activation curve with a large enough effect; inconclusive = small, poorly fitted or top-dose-only effect, or another doubt; inactive = no such curve, though single readings can be large or run the other way. The list shows a part of the results.
% is set by controls: 0 for no effect and ±100 for the full control effect.

For the test, the target named is Rap guanine nucleotide exchange factor 4 (Homo sapiens) (UniProt Q8WZA2). Briefly: Validation qHTS for agonist of cAMP-regulated guanine nucleotide exchange factor 4 (EPAC2).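 Note: exchange makes BODIPY-GDP fluorescence drop when released from Rap1B; series mostly up to about 150 µM.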 The following applies: EPAC2 Rap1B BODIPY-GDP exchange, fluorescence; activation: stronger effect = higher value. The method in brief: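 Fluorescent exchange assay: 100 nM EPAC2 with 250 nM RAP1B-BODIPY-GDP and 50 uM GDP; compound added, 5 min at room temperature, then read (ex 480/em 540 nm) every 5 min for 30 min. Normalized to 6.5 mM cAMP agonist control.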
Chain of UniProt Q8WZA2 (Q8WZA2 whole entry, looked up): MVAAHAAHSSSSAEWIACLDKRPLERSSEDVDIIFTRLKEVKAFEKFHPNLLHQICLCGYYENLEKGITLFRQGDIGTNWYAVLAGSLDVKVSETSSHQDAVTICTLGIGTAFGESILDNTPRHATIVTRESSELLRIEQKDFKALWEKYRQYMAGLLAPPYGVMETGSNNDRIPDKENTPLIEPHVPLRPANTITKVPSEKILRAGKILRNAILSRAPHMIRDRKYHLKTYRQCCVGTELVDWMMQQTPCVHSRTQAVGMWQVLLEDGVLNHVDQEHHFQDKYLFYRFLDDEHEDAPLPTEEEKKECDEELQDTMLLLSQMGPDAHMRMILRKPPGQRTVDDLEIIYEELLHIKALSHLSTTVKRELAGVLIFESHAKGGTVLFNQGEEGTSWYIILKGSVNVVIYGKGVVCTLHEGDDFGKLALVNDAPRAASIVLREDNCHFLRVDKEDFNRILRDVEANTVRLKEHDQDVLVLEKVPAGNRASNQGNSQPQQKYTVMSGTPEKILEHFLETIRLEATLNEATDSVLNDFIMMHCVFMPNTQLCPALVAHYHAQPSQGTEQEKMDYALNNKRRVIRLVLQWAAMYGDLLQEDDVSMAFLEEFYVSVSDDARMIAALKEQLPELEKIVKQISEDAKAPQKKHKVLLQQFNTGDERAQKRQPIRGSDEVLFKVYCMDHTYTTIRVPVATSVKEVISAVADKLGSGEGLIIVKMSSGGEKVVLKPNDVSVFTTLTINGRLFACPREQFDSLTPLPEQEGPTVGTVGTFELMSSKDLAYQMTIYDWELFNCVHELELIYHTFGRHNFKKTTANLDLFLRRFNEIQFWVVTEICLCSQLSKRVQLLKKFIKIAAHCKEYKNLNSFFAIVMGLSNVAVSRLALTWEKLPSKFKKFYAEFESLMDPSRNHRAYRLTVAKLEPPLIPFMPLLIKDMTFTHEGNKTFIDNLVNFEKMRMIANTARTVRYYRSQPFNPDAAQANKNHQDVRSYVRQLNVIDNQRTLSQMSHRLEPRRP
(In general: Quantitative high-throughput screening tests each substance at several concentrations.)
In the case of `O=C(Oc1ccccc1)N1CCC2(CC1)CN(C(c1ccccc1)c1ccccc1)C2`, the activation was inactive: -6.88%.
Take `O=S(=O)(O)C(F)(F)C(F)(F)C(F)(F)C(F)(F)C(F)(F)C(F)(F)C(F)(F)C(F)(F)F`: the activation was inactive: -77.5%.
As to `CNC1C2CN3CCC(O2)C13` (configuration not stated), the activation was inactive: -16.5%.
Turning to `O=C1Nc2cc(Cl)c(Cl)cc2N2CCNC[C@H]12`, the activation is inactive: -17.3%.
Take `CC1(C)[C@H](C=C(Cl)Cl)[C@H]1C(=O)OCc1c(F)c(F)cc(F)c1F`: the activation was inactive: 10.8%.
For `COc1c2c(cc3c1OCO3)CCN(C)C2`, the activation was inactive: -14.5%.
Turning to `N[C@H](Cc1o[nH]c(=O)c1Cl)C(=O)O`, the activation is inactive: -13.1%.
Regarding `CN1CCc2cccc(Cl)c2CC1`, the activation was inactive: -29.2%.
As for `C[C@]12CC[C@@H]3c4ccc(OC(=O)N(CCCl)CCCl)cc4CC[C@H]3[C@@H]1CC[C@@H]2OP(=O)(O)O`, the activation was inactive: -18% and inactive: 6.74%.
Next, `CC(C)CN1CC[C@@]2(CCCN(C(=O)c3ccncc3)C2)C1`: inactive: 0.262%.
`C=CCN1CC[C@]23c4c5ccc(O)c4O[C@H]2C(=O)CC[C@@]3(O)[C@H]1C5`: the activation is inactive: 1.16% and inactive: 12.7%.
`CCCOC(=O)c1cc2c(cn1)[nH]c1ccccc12`: the activation is inactive: -12.9%.
As to `Cc1ccc2cc3c(ccc4ccccc43)c3c2c1CC3`, the activation is inactive: 0.985%.
Regarding `OCCOc1ccccc1`, the activation was inactive: -4.2% and inactive: 4.42%.
With `O=C(Nc1cccc(F)c1)N1CC2(CCNCC2)C1`, the activation was inactive: 6.07%.
Next, `CCN1C[C@@]2(C)CC[C@@H](OC)[C@@]34C2C(O)[C@@]2(OCO[C@]25CC(OC)C2C[C@@]3(O)C5C2O)C14` (some centres not stated): inactive: -13.2%.
`ClC1C(Cl)C(Cl)C(Cl)C(Cl)C1Cl` (configuration not stated): the activation was inactive: -21.9% and inactive: -9.8%.
For `O=C(CN1CCCC2CCCCC21)c1ccc(I)cc1` (configuration not stated), the activation was inactive: -21.4%.
Turning to `CCCCC[C@@H](/C=C/C=C\C/C=C\C/C=C\CCCC(=O)O)OO`, the activation is inactive: -4.71%.
For `CN1CCC2(CC1)CCN(C(=O)Oc1ccccc1)CC2` the value was inactive: -11.8%; for `O=c1n(Cl)c(=O)n(Cl)c(=O)n1Cl`, inactive: -24.7%.
In the case of `CP(=O)(O)C1=CCNCC1`, the activation was inactive: 1.27% and inactive: -25.3%.
Next, `C[C@@H]1O[C@H](C[N+](C)(C)C)C[C@H]1O`: inactive: -0.33%; `NC(=O)c1cc(N2CC2)c([N+](=O)[O-])cc1[N+](=O)[O-]`: inactive: -30.1%; `Cn1cc(C2=C(c3cn(C4CCN(Cc5ccccn5)CC4)c4ccccc34)C(=O)NC2=O)c2ccccc21`: inactive: -2.49%.
As for `O=[N+]([O-])c1ccc(F)c([N+](=O)[O-])c1`, the activation was inactive: -5.15%.
As to `COC(=O)C1=CO[C@@H](C)[C@@H]2CN3CCc4c([nH]c5cc(OC)ccc45)[C@@H]3C[C@H]12`, the activation is inactive: -7.73%.
Next, `O=Cc1ccco1`: inactive: 10.9%; `CN1CC[C@@]2(c3cccc(O)c3)Cc3nc4ccccc4cc3C[C@H]2C1`: inactive: -6.05%.
For `C[C@]12C[C@H]3S[C@H]3C[C@@H]1CC[C@@H]1[C@@H]2CC[C@]2(C)[C@@H](O)CC[C@@H]12` the value was inactive: 4.26%.
Regarding `COP(=O)(OC)C(O)C(Cl)(Cl)Cl` (configuration not stated), the activation was inactive: -5.47%.
Take `CNC(C)Cc1ccccc1` (configuration not stated): the activation is inactive: -10.7%.
Turning to `CCCC(C)C1(CC)C(=O)NC(=O)NC1=O` (configuration not stated), the activation was inactive: -24.2%.
Next, `C=CCc1ccc2c(c1)OCO2`: inactive: -5.83%; `CC(CC(C#N)(c1ccccc1)c1ccccc1)N(C)C` (configuration not stated): inactive: 4.42%.
As to `Oc1cc2c(cc1O)[C@H]1c3ccccc3CN[C@H]1CC2`, the activation was inactive: -3.78% and inactive: 12.4%.
With `COc1cc2c(cc1OC)[C@@H]1C(=O)c3ccc(O)c(CC=C(C)C)c3OC1CO2` (some centres not stated), the activation is inactive: -1.39%.
For the compound `Fc1ccc(C(OCCN2CCN(C/C=C\c3ccccc3)CC2)c2ccc(F)cc2)cc1`, the activation is inactive: -13.7%.
Turning to `CC1(C)C(=O)C=C[C@@]2(C)C1CC(O)[C@]1(C)C2CC[C@@]2(C)C(c3ccoc3)OC(=O)C3O[C@]312` (some centres not stated), the activation was inactive: -8.73%.
As to `CC(=O)C1CCC2C3CCC4CC(O)CCC4(C)C3CC(O)C12C` (configuration not stated), the activation is inactive: -16.6%.
As to `O=C(Nc1ccccc1)N1CCCC2(CCN(C(=O)Oc3ccccc3)CC2)C1`, the activation is inactive: -20.5%.
With `C[C@H](NC(=O)[C@@H](N)Cc1ccc(O)cc1)C(=O)N[C@@H](Cc1ccccc1)C(=O)NCC(=O)N[C@@H](Cc1ccc(O)cc1)C(=O)N1CCC[C@H]1C(=O)N[C@@H](CO)C(N)=O`, the activation is inactive: -0.804%.
For `CCCCNC(C)(C)[P+](=O)O` the value was inactive: -6.54%; for `CC(C)C(Br)C(=O)NC(N)=O` (configuration not stated), inactive: 1.37%; for `CC(C)(C)NC[C@H](O)COc1cccc2[nH]c(C#N)cc12`, inactive: 2.76%.
For `COP(=O)(OC)OC=C(Cl)Cl` the value was inactive: -18.9%.
Next, `CC(=O)c1c(O)c(C)c(O)c(Cc2c(O)c3c(c(C(=O)/C=C\c4ccccc4)c2O)OC(C)(C)C=C3)c1O`: inactive: -19.4%; `COCC(=O)N1CCC2(CCCN(Cc3ccncc3)C2)CC1`: inactive: -25.9%.
For `CCCN1CCc2cc(O)cc3c2C1Cc1ccc(O)c(O)c1-3` (configuration not stated), the activation is inactive: 8.25%.
On to `S=C=NCc1ccccc1`, for which the activation is inactive: -11.4%.
Next, `C[C@]12CCC(=O)C=C1C=C[C@@H]1[C@@H]2CC[C@@]2(C)[C@H]1CC[C@@]2(O)CCC(=O)O`: inactive: -16.9%; `[Cl-].[Cl-].[Hg+2]`: inactive: -14.7%.
As for `S=C(S)N1CCNCC1`, the activation was inactive: 4.81%.
For `C[C@]12N[C@@H](Cc3ccccc31)c1ccccc12`, the activation was inactive: -23% and inactive: -6.56%.
`NC(=O)CI`: the activation was inactive: -21.7%.
Next, `CN1CCC(O)(c2ccc(F)cc2)C(C(=O)c2ccc(F)cc2)C1` (configuration not stated): inactive: 5.78%; `CCOP(=S)(OCC)SCn1c(=O)oc2cc(Cl)ccc21`: inactive: 6.23%.
Take `Cc1cccc(C)c1NC(=O)CN1CCCC1=O`: the activation was inactive: -14%.
As for `CS(=O)(=O)Nc1ccc(Cc2noc(-c3ccc4[nH]cc(CCN)c4c3)n2)cc1`, the activation was inactive: 8.63% and inactive: -5.38%.
Take `CC(C)C[C@H]1C(=O)N2CCCC2[C@]2(O)O[C@](NC(=O)[C@@H]3C=C4c5cccc6[nH]cc(c56)CC4N(C)C3)(C(C)C)C(=O)N12` (some centres not stated): the activation is inactive: -39.3%.
Take `c1ccc(N2CCCC3(CCNCC3)C2)nc1`: the activation is inactive: -5.49%.
Next, `O=C(O)COc1ccc(Cl)cc1Cl`: inactive: -8.76%.
Next, `CC(C)C[C@H](NC(=O)[C@H](Cc1ccccc1)NC(=O)CNC(=O)[C@H](CO)NC(=O)[C@@H](N)Cc1ccc(O)cc1)C(=O)N[C@H](C(=O)O)[C@H](C)O`: inactive: 9.65%; `CCNc1nc(Cl)nc(NCC)n1`: inactive: -21.1%; `c1ccc2sc(C3(NCC4CC4)CCCCC3)cc2c1`: inactive: 1.14%.
For `C=CCC1=C(C)C(OC(=O)C2C(C=C(C)C)C2(C)C)CC1=O` (configuration not stated) the value was inactive: -30.2%.
With `CCC1(c2ccccc2)C(=O)NC(=O)NC1=O`, the activation was inactive: -4.98%.
Take `COc1ccc2[nH]c3c(c2c1)CCNC3`: the activation is inactive: 18.7%.
On to `C/C=C1/CN2CC[C@]34C(=C(C=O)[C@@H]1C[C@H]23)Nc1c(O)cccc14`, for which the activation was inactive: -17.6%.
Regarding `CCN(CC)C(=O)N[C@@H]1C=C2c3cccc4[nH]cc(c34)C[C@@H]2N(C)C1`, the activation was inactive: 18.8%.
As for `COc1cc(CC(C)N)c(OC)cc1I` (configuration not stated), the activation is inactive: -19.9%.
Next, `CN1CCN(c2ncc3ncc(=O)n(C)c3n2)CC1`: inactive: -13.4%.
For the compound `O=C(O)C1=CCCN(CCOC(c2ccc(C(F)(F)F)cc2)c2ccc(C(F)(F)F)cc2)C1`, the activation is inactive: -51.8%.
As for `CCCCC/C=C\C/C=C\CCCCCCCC(=O)NCCO`, the activation was inactive: -17.5%.
Turning to `O=C(CCl)c1ccc(Cl)cc1Cl`, the activation was inactive: 13.7% and inactive: -7.13%.
`C#C[C@]1(O)CC[C@H]2[C@@H]3CCC4=CC(=O)CCC4=C3C=C[C@@]21CC`: the activation was inactive: -24.4%.
Regarding `CCC1(c2ccccc2)C(=O)N(COC)C(=O)N(COC)C1=O`, the activation is inactive: -9.02%.
Take `O=C1/C(=C\c2ccccc2)C[C@@]2(O)[C@H]3Cc4ccc(O)c5c4[C@@]2(CCN3CC2CC2)[C@@H]1O5`: the activation is inactive: -21.8%.
With `O=[N+]([O-])C(Br)(CO)CO`, the activation is inactive: -15.4%.
Turning to `ClC(Cl)=C(c1ccc(Cl)cc1)c1ccc(Cl)cc1`, the activation is inactive: -22.2%.
As to `CCOC(=O)C1C(C=C(C)C)C1(C)C` (configuration not stated), the activation is inactive: -2.82%.
Turning to `CCCCC/C=C\C/C=C\C/C=C\C=C\[C@H](CCCC(=O)O)OO`, the activation is inactive: -9.15%.
With `Oc1ccc2c3c1OC1C(O)CC[C@]4(O)C(C2)N(CC2CCC2)CC[C@]314` (some centres not stated), the activation is inactive: -9.68%.
For `C[N+](C)(C)CCOC(=O)CBr` the value was inactive: 9.33% and inactive: -22%; for `Cc1sc2ccccc2c1CC1=NCCN1`, inactive: -3.15%; for `CC(=O)[C@H]1CC[C@H]2[C@@H]3CC[C@H]4C[C@](C)(O)CC[C@]4(C)[C@H]3CC[C@]12C`, inactive: -9.07% and inactive: -63.8%.
`NC1=NC(=O)C(c2ccccc2)O1` (configuration not stated): the activation was inactive: -15.7%.
With `CCOC(=O)C1(c2ccccc2)CCN(CCC(C#N)(c2ccccc2)c2ccccc2)CC1`, the activation was inactive: 12.9% and inactive: 9.47%.
Consider `CN(C)CCc1ccc(O)cc1`, for which the activation is inactive: 1.09% and inactive: -14.3%.
As for `C=CC(=O)NCNC(=O)C=C`, the activation was inactive: -12.5%.
For `O=C(Oc1ccccc1)N1CCC2(CCCN(Cc3nccs3)C2)CC1` the value was inactive: -14.3%; for `Cn1cccc1-c1cccnc1`, inactive: -4.26%.
